About 1,200 (0.92%) of roughly 130,000 compounds were called active. Inconclusive means that the source gave no clear call. Such entries were picked first, then a sample of the others. Calls follow the shape of the dose curve; as a rule, active = well fitted cell-killing curve with a large enough effect; inconclusive = small, poorly fitted or top-dose-only effect; inactive = no such curve, though single readings can be large or run the other way. Potencies of inconclusive entries are doubtful fits and often do not repeat.
Assay: qHTS Screen for Compounds that Selectively Target Cancer Cells with p53 Mutations: Cytotoxicity of p53ts Cells at the Permissive Temperature; also: nearly all actives have a fitted effect of over 55% in size;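 as to activity change, negative = cytotoxicity: 0% = DMSO and -100% = full killing by reference compound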
Details: H1299-p53A138V at 32C, ATP luminescence viability, 24 h; activity change, negative = cytotoxicity: at 46.1 µM (top of the series)
Excerpt: NIH Chemical Genomics Center [NCGC] NIH Molecular Libraries Screening Centers Network [MLSCN] MLSCN Grant: 1 X01 MH079844-01 Assay Submitter (PI): Dr. SUN, YI, University of Michigan NCGC Assay Overview: Synthetic Lethal Screen for Compounds to Kill Cancer Cells with p53 Mutation. Tumor suppressor gene p53 serves as a major cellular barrier against tumorigenesis. […] The goal of this screening is to identify small molecule probes that selectively kill cancer cells with mutations in p53. This screening was carried out using two lines of H1299 lung cancer cells. The H1299-p53 A138V line express a temperature sensitive p53 mutant (p53ts) in which the mutant p53 protein (A138V) is in the mutant confirmation when grown at 39C (the nonpermissive temperature) and in the wild type conformation when grown at 32C (the permissive temperature). A H1299-neo line (p53 null) grown at both 39C and 32C were used as counter-screens to filter out false positive associated with temperature shifting. The small molecular compounds that selectively target mutant p53-containing cancer cells were selected as candidate probes for further study. A cytotoxicity assay based on the measurement of ATP contents in cells was used in this screen. Concentration-responses of all the compounds in the library collection were determined in qHTS using the cell lines and temperature conditions as above.
NCGC Assay Protocol Summary: Both the H1299-p53A138V and H1299-neo cell lines were provided by Dr.Yi Sun, a PI at the University Michigan. The cells were maintained and cultured at 37C. The resuspended frozen cells were used to plate the cells in the 1536-well assay plates at a density of 600 cells per well in 5 ul medium. The assay plates with the cells were incubated at 37C for 16 to 30 hours before the experiments. The library compounds in DMSO solution were added to the cells in assay plates and incubated 24 hours at 39C (for mutant p53 conformation) or 32C (for normal p53 conformation as control). An ATP_lite assay kit (PerkinElmer) was used to determine the cell viability. Tomaxifen (100uM) was used as the positive control for cell killing. Data were normalized to the controls for basal activity (DMSO only) and 100% killing (100uM tamoxifen). AC50 values were determined from concentration-response data modeled with the standard Hill equation. P53 assay protocol: 1. Reagent; 5 uL H1299-p53A138V or H1299-neo cell cells/well 2. Time; overnight; 37C incubation 3. Compounds; 23 nL; 5.9 nM to 46 uM 4. Controls; 23 nL; Tamoxifen 100 uM 5. Time; 24 hr; 37C incubation 6. Reagent; 3 uL; ATP_Lite reagent 7. Time; 20 min; Room Temperature 8. Detection; Luminescence; Viewlux plate reader Keywords: p53, synthetic lethal, cancer, cell viability, cytotoxicity, H1299 cell line, luminescence, MLSMR, MLSCN, NIH Roadmap, qHTS, NCGC
Potency is read from the fitted curve at half-maximal effect; tags tell the direction and shape of the fitted curve.

Compound	activity change, negative = cytotoxicity	Potency
CCOc1ccc2sc(NS(=O)(=O)c3ccc(OC)c(OC)c3)nc2c1	inactive: 5.43%	–
O=C1C=CC(=O)C2=C1C1c3ccccc3C2c2ccccc21	–	inconclusive: 31.6 µM [cytotoxic, single point]
CC(C)CO/N=C1/C[C@@H](O)[C@@H](O)[C@@H]2[C@@H]3C(=O)N([C@@H](C)c4ccccc4)C(=O)[C@H]3CC[C@H]12	inactive: -0.721% [at 9.22 µM]	–
C=CCSc1n[nH]c(-c2ccc(OCCC)cc2)n1	–	inconclusive: 31.6 µM [cytotoxic, single point]
Cc1nn(-c2nc3ccccc3s2)c(C)c1Oc1ccccc1O	–	active: 12.6 µM
O=C(Nc1nc2c(s1)CCCC2)c1ccc(Br)o1	–	inconclusive: 2.51 µM [cytotoxic, full curve]
Cc1c(C(=O)NCc2ccoc2)oc2ccc3c(c12)C(=O)CC(C)(C)O3	–	inconclusive: 15.8 µM [cytotoxic, single point]
COc1cccc(Nc2ncc3nc(C)c(=O)n(C4CC4)c3n2)c1	inactive: 8.52%	–
Cn1c(=O)[nH]c(=O)c2c1nc(Br)n2CCCCSc1nc2ccccc2o1	–	inconclusive: 20 µM [cytotoxic, single point]
O=C(CN1C(=O)CCC1=O)Nc1nc(-c2nc3ccccc3s2)cs1	–	inconclusive: 11.2 µM [cytotoxic, partial curve]
CN(C)c1ccc(C(=C2C=CC(=[N+](C)C)C=C2)c2ccc(N(C)C)cc2)cc1	–	inconclusive: 12.6 µM [cytotoxic, single point]
CCOc1cc(C(Nc2cc(C)ccn2)c2ccc3cccnc3c2O)ccc1OC (stereo not drawn)	–	inconclusive: 2.24 µM [cytotoxic, full curve]
COc1cccc(C(=O)Nc2ccc(N(C)C)cc2)c1OC	–	inconclusive: 12.6 µM [cytotoxic, partial curve]
C=CCNc1nc(-c2cc3ccccc3o2)cs1	–	active: 14.1 µM
CC1(C)[C@@H](CC(=O)O)CCC[C@@H]1CC(=O)O	inactive: -3.76% [at 9.22 µM]	–
Nc1c(C(=O)Nc2ccc(Cl)c(C(F)(F)F)c2)sc2nc(-c3ccncc3)ccc12	–	inconclusive: 25.1 µM [cytotoxic, single point]
O=C(Nc1cn(-c2ccccc2)nc1-c1cccs1)c1ccco1	inactive: -2.86%	–
Cc1occc1-c1nnc(SCC(=O)NCc2ccco2)n1CC(C)C	inactive: 8.43%	–
Cc1nnc(Sc2nc(Sc3nnc(C)s3)nc(N3CCN(C)CC3)n2)s1	–	active: 20 µM
COc1ccccc1OCC(=O)Nc1ccccn1	–	active: 10 µM
c1ccc2c(Oc3ccc4c(c3)OCO4)nncc2c1	–	inconclusive: 12.6 µM [cytotoxic, partial curve]
O=C1C2C3C=CC(CO)(O3)C2C(=O)N1c1ccc(-c2ccccc2)cc1 (stereo not drawn)	–	inconclusive: 20 µM [cytotoxic, single point]
CCOc1ccc(C(=O)c2cn(CC(=O)Nc3cc(OC)cc(OC)c3)c3ccc(F)cc3c2=O)cc1	inactive: 7.3%	–
COc1ccc(OCC(O)Cn2c(Nc3ccccc3)nc3c2c(=O)n(C)c(=O)n3C)cc1 (stereo not drawn)	–	inconclusive: 31.6 µM [cytotoxic, single point]
COc1cc(OC)c(NC(=O)c2oc3ccc4c(c3c2C)C(=O)CC(C)(C)O4)cc1Cl	inactive: 0.923%	–

Compound	activity change, negative = cytotoxicity	Potency
CC(C)CN(c1ccccc1)S(=O)(=O)c1nnc(NC(=O)c2ccco2)s1	–	inconclusive: 5.01 µM [cytotoxic, partial curve]
COCCCNC(=O)Cn1c(=O)n(CCCC(=O)NCc2ccc(C)cc2)c(=O)c2ccccc21	inactive: 13.3%	–
Oc1ccccc1-c1nc(/C=C/c2ccc(F)cc2)no1	–	inconclusive: 20 µM [cytotoxic, partial curve]
CCN1CCN(c2cc(C)c3cc(NC(=O)c4cc(OC)cc(OC)c4)ccc3n2)CC1	–	inconclusive: 20 µM [cytotoxic, single point]
CCOc1ccccc1N1CC(c2nc3ccccc3n2CCCCOc2ccccc2)CC1=O (stereo not drawn)	–	inconclusive: 25.1 µM [cytotoxic, single point]
COc1cc(NC(=O)CSc2nc(-c3ccc(C(C)C)cc3)no2)cc(OC)c1	–	inconclusive: 20 µM [cytotoxic, single point]
CCc1ccc(NC(=O)C2C3C=CC(C4CC34)C2C(=O)O)cc1 (stereo not drawn)	–	inconclusive: 11.2 µM [cytotoxic, single point]
Cc1cc(C(=O)NCc2cccs2)cs1	inactive: -5.19%	–
COc1ccc(C)cc1NC(=O)C(Cc1ccccc1)NS(=O)(=O)c1ccc(Br)s1 (stereo not drawn)	–	inconclusive: 25.1 µM [cytotoxic, single point]
Nc1nnc(N2CCc3ccccc32)s1	–	inconclusive: 15.8 µM [cytotoxic, partial curve]
O=C(Nc1ccccc1O)c1ccc(Cl)cc1	–	inconclusive: 12.6 µM [cytotoxic, single point]
COc1cccc(-c2nc(NC3CCNCC3)c3ccccc3n2)c1	–	inconclusive: 20 µM [cytotoxic, single point]
CCOc1cccc2sc(N3CCN(C(=O)C(C)(C)C)CC3)nc12	inactive: 1.69%	–
CCc1ccc(CNC(=O)C2CCN(c3nnc(C)c4c(C)n(-c5ccc(C)cc5)nc34)CC2)cc1	–	inconclusive: 31.6 µM [cytotoxic, single point]
CCCCN1c2ccccc2N(CCCO)c2cc(C)nnc21	–	inconclusive: 15.8 µM [cytotoxic, partial curve]
CN(C)c1ccc(N/C=C/C(=O)c2ccc(F)cc2)cc1	–	inconclusive: 31.6 µM [cytotoxic, single point]
COCCn1c(C)cc(C(=O)CSc2ncn[nH]2)c1C	–	inconclusive: 25.1 µM [cytotoxic, single point]
O=C1C(C=Nc2ccccc2O)=C(O)c2ccccc21	–	active: 10 µM
COc1ccc(CCNC(=O)c2cc(=O)[nH]c3ccc(S(=O)(=O)N4CCCCC4C)cc23)cc1OC (stereo not drawn)	inactive: 17.9%	–
CC(C)c1ccc(Cn2ccc3c4c(N)nc(NC5CC5)nc4ccc32)cc1	–	inconclusive: 31.6 µM [cytotoxic, single point]
COc1ccc2c(c1)sc1nc(-c3ccccc3)cn12	–	active: 0.631 µM
CC1(C)Cc2nc3sc4c(SCC(=O)NCc5ccco5)ncnc4c3cc2CO1	–	inconclusive: 31.6 µM [cytotoxic, single point]
COc1cccc(-c2nc(CS(=O)(=O)CC(=O)NCCc3ccc(Cl)cc3)c(C)o2)c1	inactive: -3.21%	–
CC1CCCCN1C(=O)CSc1c2c(nc3cc(Cl)ccc13)CCCC2 (stereo not drawn)	inactive: -13%	–
CC(C)c1ccc(NC(=O)c2cnc3sc(N4CCOCC4)nn3c2=O)cc1	–	inconclusive: 2.51 µM [cytotoxic, partial curve]

Compound	activity change, negative = cytotoxicity	Potency
Cc1cc(Br)cc2c1N(Cc1ccccc1OC(C)C)C(=O)C2=O	–	inconclusive: 20 µM [cytotoxic, single point]
Cc1cc(/C=N/n2cnnc2)c(C)n1-c1ccc(OCc2ccccc2F)cc1	–	inconclusive: 25.1 µM [cytotoxic, single point]
CCOC(=O)c1ccc(NC(=O)N(CC)CC)cc1	–	inconclusive: 12.6 µM [cytotoxic, partial curve]
Nc1nc(Sc2ccc([N+](=O)[O-])c3nonc23)c2[nH]cnc2n1	–	inconclusive: 5.01 µM [cytotoxic, single point]
CCCCOC(=O)Nc1ccc(N2CCCCC2)cc1	–	inconclusive: 12.6 µM [cytotoxic, partial curve]
CCCCCn1c(CCCNC(=O)c2cccc(C)c2)nc2ccccc21	–	inconclusive: 35.5 µM [cytotoxic, single point]
CCOc1ccccc1CNC(=O)c1ccc2c(c1)sc1nc(-c3ccccc3)cn12	inactive: 3.12%	–
C/C(=C\c1ccc(C(=O)O)cc1)c1ccc2c(c1)C(C)(C)CCC2(C)C	–	inconclusive: 39.8 µM [cytotoxic, single point]
CC1CCCN(c2ccc(C(=O)NCc3cccs3)cn2)C1 (stereo not drawn)	inactive: -9.53%	–
COc1ccc(C(=O)Nc2ccc(C)cn2)c(OC)c1	–	active: 0.501 µM
Cc1n[nH]c(C)c1CCc1nc2c3ccccc3nc(SCC(=O)Nc3ccc(F)cc3)n2n1	–	inconclusive: 31.6 µM [cytotoxic, single point]
COc1cccc(-c2nc3cc(C)ccc3o2)c1	–	inconclusive: 10 µM [cytotoxic, partial curve]
CCN(CC)c1ccc(NC(=O)c2ccc(Br)o2)cc1	–	active: 12.6 µM
O=C(Oc1ccccc1Cl)c1cc(-c2ccc3c(c2)OCCO3)on1	–	inconclusive: 12.6 µM [cytotoxic, partial curve]
CCN1CCN(c2cc(C)c3cc(NC(=O)c4cccc(Cl)c4)ccc3n2)CC1	–	active: 14.1 µM
CCN(CC)CCCNC(=O)C1CCN(S(C)(=O)=O)CC1	inactive: 12.6%	–
CC1CCCCN1S(=O)(=O)c1ccc(NC(=O)c2cccc(-n3cnnn3)c2)cc1 (stereo not drawn)	inactive: -0.81%	–
Cc1cc(C(=O)Nc2ccccn2)no1	inactive: -10.8%	–
CCOc1ccc(-n2c(=O)c3c4c(sc3n(Cc3cccc(C)c3)c2=O)CCCC4)cc1	inactive: 2.86%	–
c1ccc(NCc2nc3ccccc3n2CCOc2ccccc2)cc1	–	inconclusive: 0.0089 µM [cytotoxic, full curve, poor fit]
CC(C)CC(=O)Nc1ccc2oc(-c3cccnc3)nc2c1	–	inconclusive: 10 µM [cytotoxic, partial curve]
CC1CCCCN1S(=O)(=O)c1cc2c(=O)nc3ccccn3c2cc1Cl (stereo not drawn)	inactive: -1.74%	–
CC(C)(Sc1ccc(CCN(CCCCC2CCCCC2)C(=O)NC2CCCCC2)cc1)C(=O)O	–	inconclusive: 31.6 µM [cytotoxic, single point]
